The RNAGym collection of RNA variant scans (doi:10.1093/nar/gkz1192)
Read counts are not given, so values of variants with three or more changes are uncertain.

B1: CPEB3 Ribozyme (parent)
chain: UAACAGGGGGCCACAGCAGAAGCGUUCACGUCGCAGCCCCUGUCAGAUUCUGGUGAAUCUGCGAAUUCUGCUGUAUAUCUC

Variants of: B1
Experiment: self-cleavage, relative activity (ratio to wild type); higher = more cleavage; in vitro, sequencing
Summary of the method: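 Relative activity compares each variant's cleaved/total read fraction with that of the unmutated ribozyme. To get these fractions, barcoded CPEB3 ribozyme libraries from rounds of error-prone PCR were transcribed with T7 RNA polymerase for 5 hours at 37°C and then given 15 min of DNase I treatment before EDTA was added. The RNAs were reverse transcribed with template switching and sequenced on Illumina, and DNA sequencing linked barcodes to variants. A minimum of 5 reads applied, and three batches were averaged.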

Row | Variant | self-cleavage
1 | UAACAGGGGGCCACAGCAGAAGCGUUCACGACGCAGCCCCUGUCUGAUUCUGGUGAAUCUGCGAAUCCUGCUGUAUAUCUC | 0.12
2 | UAACAGGGGGCCACAGCAGAAGCGUUCACGACGUAGCCCCUGUCAGAAGCUGGUGAAUCUGCGAAUUCUGCUGUAUAUCUC | 0.1
3 | UAACAGGGGGCCACAGCAGAAGCGUUCACGACGCAGCCCCUGUCAGAUUCUGGUGAAUCUGCGACUUCUGCAGUAUACCUC | 0.09
4 | UAACAGGGGGCCACAGCAGAAGCGUUCACGACGCAGCCCCUGUCAGGUACUGGUGAAUCUGCGAAUUCUGCUGUAUAUCUC | 0.15
5 | UAACAGGGGGCCACAGCAGAAGCGUUCACGACGCAGCCCCCGUCAGAUUCUGGUGAAUCUGCGAAUUCUGCCGUAUAUCUC | 0.59
6 | UAACAGGGGGCCACAGCAGAAGCGUUCACGACGCAGCCCCUGUUAGAAUCUGGCGAGUCUGCGAAUACUGCUGUAUAUCCC | 0.03
7 | UAACAGGGGGCCACAGCAGAAGCGUUCACGACGCAGCCCCCGUCAGAUUCUGGUGAUUAUGCGAAUUCUGCUGUAUAGCUC | 0.07
8 | UAACAGGGGGCCACAGCAGAAGCGUUCACGACACAGCCCCUGUCAGAUUCUGGUGAAUCUGCGAAAUCUGCUGUAUAUUUC | 0.09
9 | UAACAGGGGGCCACAGCAGAAGCGUUCACGACGCAGCCCCUGUCAGAUUCUUGUGAGUCUGCGAACUCUGCUGUAUAUCUC | 0.15
10 | UAACAGGGGGCCACAGCAGAAGCGUUCACGACGCAGCCACUGUCAGAUUCUGGUGAAUCUGCGAAUUCAGCUGUAUAUCUC | 0.17
11 | UAACAGGGGGCCACAGCAGAAGCGUUCACGACGCAGCCCCUGUCUGAUUCUGUUGAAUCCGCGAAUUCUGCUGUAUAUCCC | 0.35
12 | UAACAGGGGGCCACAGCAGAAGCGUUCACGACGCAGCCCCAGUCAGAUUCUGGCGAAUCUGUGAAUUCUGCUGUAUAUCUU | 0.14
13 | UAACAGGGGGCCACAGCAGAAGCGUUCACGACGCAGCCCCCGACAGAUUCUGGUGAAUCUGCGAAUUCUGCUGUAUAUCAC | 0.14
14 | UAACAGGGGGCCACAGCAGAAGCGUUCACGACGCAGCCCCGGCCAGAUUCUGGUGAGUCUGCGUAUUCUGCCGUGUAUCUC | 0.01
15 | UAACAGGGGGCCACAGCAGAAGCGUUCACGACGCAGCCCCUGUCAGGUUCUGGUGAAUCUGCGAGUCCUGCUGUUUAUCUC | 0.06
16 | UAACAGGGGGCCACAGCAGAAGCGUUCACGACGCAGCCCCUGUCAGGUGCUGGUGGAUCUGCGAAUUCUGCUGUAUAUCUC | 0.22
17 | UAACAGGGGGCCACAGCAGAAGCGUUCACGACGCAGCCCCUGUCAGUAUCUGGUGAGUCUGCGAAUCCUGCUGUAUAUCUC | 0.37

Row | Variant | self-cleavage
18 | UAACAGGGGGCCACAGCAGAAGCGUUCACGACGCAGCCCCUGUCAGAUUCUGGUGAAUCUGCGAAUUCUCCUGUAUAUCCC | 0.21
19 | UAACAGGGGGCCACAGCAGAAGCGUUCACGACGCAGCCCCUGUCAGAUUCUGGUGAAUCUGCGGAUUCUGCUGUAUACCUC | 0.29
20 | UAACAGGGGGCCACAGCAGAAGCGUUCACGACGCAGCCCACGUCAGAUUCUGGUGAAUCGGCGAAUUCUGCUGUAUAUCUC | 0.09
21 | UAACAGGGGGCCACAGCAGAAGCGUUCACGACGCAGCCCCCGUCAGACUCUGGUGAAUCUGCGAAUCCUGCUGUAUAUCCC | 0.12
22 | UAACAGGGGGCCACAGCAGAAGCGUUCACGACGCUGCCCCUGUCAGAUCCUGGCGAAACUGCGAAUUCUGCUGUAUAUCUC | 0.06
23 | UAACAGGGGGCCACAGCAGAAGCGUUCACGACGCAGCCCCUGUCAGAUUCUGGUGAGUCUGCGAAUCCUGCUGUAUAUCUC | 0.17
24 | UAACAGGGGGCCACAGCAGAAGCGUUCACGACGCAGCCCCUGUCAGAUUCUGGUGAAUCUGCGAAUUUUGCUGUAUAUCCC | 0.5
25 | UAACAGGGGGCCACAGCAGAAGCGUUCACGACGCAGCCCCUGUCAGAUUCUGGUGAAUUUGCGAAUUCAGCUGCAUAUCUC | 0.14
26 | UAACAGGGGGCCACAGCAGAAGCGUUCACGACGGAGCCCCCGUCAGAUUCUAGUGAAUCUGCGAAUUCUGCUGUAUAUCUC | 0.09
27 | UAACAGGGGGCCACAGCAGAAGCGUUCACGACGCAGCCCCUGUCGGAUCCUGGUGAAUCUGCGAAUUCUGCUGUAUAUCUC | 0.4
28 | UAACAGGGGGCCACAGCAGAAGCGUUCACGACGCAGCCCUUGUCAGAUUCCGGUGAAUCUGCGAAUUCUGCUGUAUAUCUC | 0.24
29 | UAACAGGGGGCCACAGCAGAAGCGUUCACGACGCAGCCCCUGUCAGGUUCUGGUGAAUCUGCGAAUUCUGCUGUAUACCUC | 0.51
30 | UAACAGGGGGCCACAGCAGAAGCGUUCACGACGCAGCACCUGUCAGAUUCUGGCGAAUCUGCGAAUUCUGCUGUAUAUCUC | 0.11
31 | UAACAGGGGGCCACAGCAGAAGCGUUCACGACUCAGCCCCUGUCAGAUUCUGGUGAAUCAGCGAAUUCUGCUGUAUUUCUC | 0.13
32 | UAACAGGGGGCCACAGCAGAAGCGUUCACGACGCAGCCCCUGUCAGGUUCUGGUGAAUCUGCGAAUUCCGCCGUAUAUCUC | 0.13
33 | UAACAGGGGGCCACAGCAGAAGCGUUCACGACGCAGCCCCUGUCAGAUUCUGAUGAAUCUGCGAAUUCUACAGUAUAUCUC | 0.12
34 | UAACAGGGGGCCACAGCAGAAGCGUUCACGACGCAGCCCCUGUCGGAUUCAGGUGGGUCUGCGAAUACUGCUGUAUAUCUC | 0.06
